ChEMBL document CHEMBL5308541, “MAIP: An Open-Source Tool to Enrich High-Throughput Screening Output and Identify Novel, Druglike Molecules with Antimalarial Activity” (ACS Med Chem Lett, 2023)
Hit rate of the full screen: of about 150,000 compounds, about 540 (0.36%) showed an effect of 50% or more. The list shows a part of the results.

Test system: Plasmodium falciparum
Assay: Primary screen in NF54 nanoGlo assay, in single point, at 2uM, 72h; a lower Z score goes with more inhibition
Assay type: functional, Erythrocyte
Settings: timepoint 72 hour

Structure (SMILES) | % Inhibition | Z score
O=C(c1ccnc(NCCCNc2cccnc2)c1)N1CCCC1 | 0% | 0.07
COCCN1CCC[C@H](CNc2nnc(-c3ccccc3)s2)C1 | -1% | 0.18
Brc1cccc(N[C@H]2CCCNC2)c1 | -2% | 0.36
c1ccc2c(N3CCN(Cc4ccc(-n5ccnc5)cc4)CC3)ncnc2c1 | 0% | 0.08
CN(CC1CCN(Cc2ccccc2)CC1)c1cc(N)nc(N2CCOCC2)n1 | 6% | -0.92
CC(C)(C(=O)NCc1nnc[nH]1)c1ccc(F)cc1 | 1% | -0.21
COc1ccc2[nH]c(C(=O)NC3CCN(c4cnccn4)CC3O)cc2c1 (centres undefined) | 5% | -0.85
COC1(c2nc(-c3ccccn3)no2)CCN(CC[C@H]2CCCN2C)CC1 | -9% | 1.32
CC1CC(NCc2ccc(F)c(C(F)(F)F)c2)CCN1C (centres undefined) | -3% | 0.5
c1cc(CNc2ccc3ncsc3c2)cs1 | -10% | 2.15
Cc1c[nH]c(CN2CCc3nnc(Cc4ccccc4)n3CC2)c(C)c1=O | 1% | -0.12
COc1ccccc1[C@@H]1CCCN1c1cc(NCC2CC2)ncn1 | -2% | 0.25
Oc1cc(CNCC2(Cn3ccnc3)CC2)nc2c(F)cccc12 | -4% | 0.64
c1nc(N2CCC(c3nnc[nH]3)CC2)c2[nH]ccc2n1 | 3% | -0.4
O=C(NC1CCNCC1O)c1cccc(-c2cnn(Cc3ccccc3)c2)c1 (centres undefined) | -9% | 1.89
CCc1ccc(CN(C(=O)Cc2c(C)[nH]c(=O)[nH]c2=O)C2CC2)cc1 | -5% | 0.83
CCN(CC)Cc1cccc(CNc2nc(N)c3cnn(C)c3n2)c1 | -8% | 1.8
Cc1nn(-c2ccccc2)cc1CN1CC(CO)C(CN2CCN(C)CC2)C1 (centres undefined) | -8% | 1.66
FC(F)(F)c1c[nH]c([C@H]2CCCN(Cc3ccc4c[nH]nc4c3)C2)n1 | -4% | 0.77
CCN(CC)c1ccc(CNC(=O)c2cccc(-c3cnc(NC4CCCCC4)nc3)c2)cc1 | -4% | 0.72
Cc1cccc(CNC(=O)c2cccc(-c3cccc(N4CCNCC4)c3)c2)n1 | 5% | -1.04

Structure (SMILES) | % Inhibition | Z score
Fc1cc2[nH]cc(CCNc3ccc4nnc(C5CC5)n4n3)c2cc1Cl | -3% | 0.45
OC[C@H](Nc1ncnc2sccc12)c1ccc(Cl)cc1 | -22% | 3.87
CC(C)COC(=O)N1CCC(NC2CC(C)(C)NC(C)(C)C2)CC1 | -13% | 2.77
CN(C)C(=O)CN1CCCN(C2CCN(c3ccccc3Cl)CC2)CC1 | 5% | -1.14
O=S1(=O)CC[C@H](Nc2cc(-n3ccnc3)ncn2)CC12CCC2 | -10% | 2.07
CCN1CCN(CC2CN(C/C=C/c3ccc(OC)cc3)CC2CO)CC1 (centres undefined) | -3% | 0.7
Cc1nc(C2CCNCC2)cc(N2CCN(CC(C)C)[C@@H](CCO)C2)n1 | 7% | -1.1
Cc1nonc1C(=O)NCC(=O)NCC(F)F | -5% | 0.85
CCN1CCCC[C@H]1C(=O)N[C@H]1CC[C@H](Nc2ccccn2)CC1 | -2% | 0.4
COc1ccc(NC(=O)C2OC(C)CC2C)cc1OCC(F)(F)F (centres undefined) | 9% | -1.94
O=C(O)c1ccc(Nc2nnc(-c3c[nH]c4ccccc34)o2)cc1 | 4% | -0.54
COc1ccnc(N2CCC3C(CCCN3C(=O)CCCC(C)(C)C)C2)n1 (centres undefined) | -7% | 1.12
Cc1cc(C)c(C)c(S(=O)(=O)NC2COCC2Cc2ccncc2)c1C (centres undefined) | 0% | -0.02
c1cc(CNc2nc(C3CC3)nc3c2CCNCC3)c2cc[nH]c2c1 | 9% | -1.62
COc1ncc(-c2ccc([C@H](C)N3CCCCC3)cc2)c(OC)n1 | -11% | 1.82
COCCN1C[C@@H](CNc2nc(N)nc3c2CCNCC3)CC1=O | 3% | -0.61
O=S(=O)(c1cc(Cl)cc(Cl)c1)N1CCN(c2nccc(-c3ccc(-n4ccnc4)cc3)n2)CC1 | -2% | 0.36
c1ccc(N2CCN(CCCNc3cnccn3)CC2)cc1 | 4% | -0.97
Cc1cccc(N2CCC(NC3COCC3Cc3ccncc3)CC2)c1C (centres undefined) | 1% | -0.27
Cc1c(N2CCN(CC(F)F)CC2)nc(N(C)C)nc1N1CCN(CC(F)F)CC1 | -5% | 0.81
CCN1CCC[C@H](CN(C)C2CCN(c3ccc(NC(=O)c4ccc(OC)cc4)cc3)CC2)C1 | 24% | -4.16
